The source of these data is a collection of fitness landscapes (doi:10.1126/science.1257360).

Sequences and labels used below:
B1: PhoQ; a variant is named by its letters at X, in order, P23837 (parent)
chain: MKKLLRLFFPLSLRVRFLLATAAVVLVLSLAYGMVALIGYSVSFDKTTFRLLRGESNLFYTLAKWENNKLHVELPENIDKQSPTMTLIYDENGQLLWAQRDVPWLMKMIQPDWLKSNGFHEIEADVNDTSLLLSGDHSIQQQLQEVREDDDDAEMTHSVAVNVYPATSRMPKLTIVVVDTIPVELKSSYMVWSWFIYVLSANLLLVIPLLWVAAWWSLRPIEALAKEVRELEEHNRELLNPATTRELTSLVRNLNRLLKSERERYDKYRTTLTDLTHSLKTPLXXLQXXLRSLRSEKMSVSDAEPVMLEQISRISQQIGYYLHRASMRGGTLLSRELHPVAPLLDNLTSALNKVYQRKGVNISLDISPEISFVGEQNDFVEVMGNVLDNACKYCLEFVEISARQTDEHLYIVVEDDGPGIPLSKREVIFDRGQRVDTLRPGQGVGLAVAREITEQYEGKIVAGESMLGGARMEVIFGRQHSAPKDE

This is one part of the list. Some results are limits rather than exact numbers.

The assay covers variants of B1. As to the kind of experiment: enrichment ratio after two sorts for PhoP signalling (ratio (wild type AVST 3.29)); higher = more functional. Conditions: with PhoP (E. coli).
With AHPD, the enrichment ratio was not above 0.25. Consider YRTI, for which the enrichment ratio is not above 0.25. To HFFM belongs not above 0.25; to MYPL, not above 0.25.

Regarding ISYS, the enrichment ratio is not above 0.25. To WRIA belongs not above 0.25; to EITT, not above 0.25.

Take IERL: the enrichment ratio was not above 0.25. Regarding KIFM, the enrichment ratio is not above 0.25. For EVLM, the enrichment ratio is not above 0.25.

For EQVY, the enrichment ratio is not above 0.25.

Turning to FEKW, the enrichment ratio is not above 0.25. IWQF: the enrichment ratio is not above 0.25. Under TTSS stands 15.9; under NFPN, not above 0.25. Under KDGS stands not above 0.25; under KRRP, not above 0.25; under TMPL, not above 0.25. Under ISDR stands not above 0.25. Regarding DVSL, the enrichment ratio was not above 0.25. Under AYST stands not above 0.25. To RISD belongs not above 0.25; to ISVR, not above 0.25. To EQFP belongs not above 0.25.

As to EMNM, the enrichment ratio was not above 0.25. To IMVF belongs not above 0.25. Under TGIE stands not above 0.25. To IPQA belongs not above 0.25.

Regarding HGLA, the enrichment ratio was not above 0.25. To DPIK belongs not above 0.25; to TRFF, not above 0.25.

In the case of FKGW, the enrichment ratio is not above 0.25. To YVWD belongs not above 0.25; to FFIH, not above 0.25. To YDVD belongs not above 0.25. Under AHMQ stands not above 0.25; under RPCT, not above 0.25; under RWNY, not above 0.25. For ITAA, the enrichment ratio is not above 0.25. Under FVFW stands not above 0.25; under DANS, not above 0.25. To IRDT belongs not above 0.25; to HDDS, not above 0.25; to FALY, 1.35.

Turning to TRDL, the enrichment ratio is not above 0.25. Regarding DNGE, the enrichment ratio is not above 0.25. Consider NQAM, for which the enrichment ratio is not above 0.25. Under HVRR stands not above 0.25. To ELKA belongs not above 0.25. To GMCV belongs 2.92; to YQAR, not above 0.25. For the variant IETH, the enrichment ratio is not above 0.25. As to GHDA, the enrichment ratio was not above 0.25.

With ALKR, the enrichment ratio was not above 0.25. Under QNHR stands not above 0.25; under QDFC, not above 0.25. With VMRV, the enrichment ratio was not above 0.25. In the case of WTKV, the enrichment ratio is not above 0.25. To SRPF belongs not above 0.25. To YWQD belongs not above 0.25; to GHNI, not above 0.25. Under QSNM stands 13.1; under KINY, not above 0.25; under NYFA, not above 0.25. Consider INMS, for which the enrichment ratio is not above 0.25.

Consider VNAQ, for which the enrichment ratio was not above 0.25. To NYGP belongs not above 0.25; to TMEF, not above 0.25; to GALE, not above 0.25.

In the case of RESP, the enrichment ratio is not above 0.25.

Take SWSL: the enrichment ratio was not above 0.25. Under EPAR stands not above 0.25; under WMHS, not above 0.25; under DNAV, not above 0.25. As for LCWL, the enrichment ratio is not above 0.25. Under PCLY stands not above 0.25; under VWWI, not above 0.25; under YCTC, not above 0.25.

NKNW: the enrichment ratio was not above 0.25. To HLYY belongs not above 0.25. Under RTLH stands not above 0.25; under RCMW, not above 0.25. Under NSMT stands not above 0.25; under IKTA, not above 0.25. In the case of KNNM, the enrichment ratio was 5.03. To SDVQ belongs not above 0.25; to GGLC, 4.03; to HIAP, not above 0.25. To VGWN belongs not above 0.25; to LCMV, not above 0.25. Under LLGQ stands not above 0.25; under VQRF, not above 0.25. Turning to ECPM, the enrichment ratio is not above 0.25. Under QEPA stands not above 0.25; under WCWQ, not above 0.25. In the case of AKPA, the enrichment ratio is not above 0.25. To TNAA belongs 13.7; to PNSD, not above 0.25. To GTAK belongs not above 0.25; to NRND, not above 0.25; to ANLI, 23.1. To AHMF belongs not above 0.25; to SQIA, 1.28. With MYID, the enrichment ratio is not above 0.25. MIPC: the enrichment ratio was not above 0.25.

For the variant NNYI, the enrichment ratio is not above 0.25. Under PCNG stands not above 0.25. To SVIN belongs not above 0.25. To APQK belongs not above 0.25; to VSDY, not above 0.25. Regarding PLAT, the enrichment ratio was not above 0.25. Under PIQP stands not above 0.25; under ESQV, not above 0.25; under KISD, not above 0.25. To RIYV belongs not above 0.25; to WDEP, not above 0.25; to DVGL, not above 0.25. Under INSN stands not above 0.25. Turning to NRAF, the enrichment ratio is not above 0.25.

Take EMIL: the enrichment ratio is not above 0.25. To TSNP belongs not above 0.25. As for SMDR, the enrichment ratio was not above 0.25.

Consider RSPM, for which the enrichment ratio is not above 0.25.

In the case of LYKV, the enrichment ratio is not above 0.25. To HYGM belongs not above 0.25; to AINW, not above 0.25; to RQVP, not above 0.25.

For the variant TEVP, the enrichment ratio was not above 0.25. To PNGI belongs not above 0.25; to RIMG, not above 0.25; to TKRD, not above 0.25. Under SGYQ stands not above 0.25; under GMFK, not above 0.25.

As for VFVF, the enrichment ratio is not above 0.25. To EPKF belongs not above 0.25.

Turning to WMSP, the enrichment ratio was not above 0.25. To MILN belongs 17.5; to ESHW, not above 0.25; to VAES, not above 0.25. To IFFN belongs not above 0.25; to KIQP, not above 0.25.

On to ANQK, for which the enrichment ratio was not above 0.25. In the case of SIFG, the enrichment ratio was not above 0.25. Under KRFS stands not above 0.25; under SHKQ, not above 0.25; under RPSY, not above 0.25.

Take HLVA: the enrichment ratio was not above 0.25. Consider LLFQ, for which the enrichment ratio is not above 0.25. ENAG: the enrichment ratio is not above 0.25. Under RLTD stands not above 0.25; under TNDY, not above 0.25; under FTTG, not above 0.25. As to LDWP, the enrichment ratio was not above 0.25.
